Test results published in PubChem BioAssay AID1508642 (National Center for Advancing Translational Sciences (NCATS), 2021).
Out of some 43,000 compounds screened, about 200 (0.47%) were called active. Not shown: some 12% with an inconclusive outcome. The call rests on the fitted dose curve; in most records, active means well fitted cell-killing curve with a large enough effect; inconclusive means small, poorly fitted or top-dose-only effect, or effect the other way; inactive means flat fitted curve, though single readings scatter. Some of the results follow.

experiment: Cell viability qHTS assay in S16 Pmp22-F2sN cells; conditions: S16 Pmp22-F2sN Schwann cells (luciferase reporters placed in the Pmp22 gene) viability, CellTiter-Glo, 24 h; series mostly up to 57.5 µM; activity change, negative = cytotoxicity: at the top concentration; further: nearly all actives have a fitted effect of over 65% in size
Procedure, shortened: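 Luminescence from CellTiter-Glo, read by CCD camera after a 15 min room-temperature incubation, served as the viability signal. Reporter Schwann cells (S16 Pmp22-F2sN) had been treated with pin-transferred compounds for 24 h at 37C.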
On the % scale 0 is the no-effect control and ±100 the full control effect.

Compound | activity change, negative = cytotoxicity
C=Cc1ccc(CSc2nnc(C)n3c2cc2occc23)cc1 | inactive: -12.9%
COc1cccc(-c2nc(CS(=O)(=O)CC(=O)NCCc3ccc(OC)c(OC)c3)c(C)o2)c1 | inactive: 1.44%
O=C(Cn1ccn(-c2cccc(Cl)c2)c(=O)c1=O)c1ccc(F)cc1 | inactive: 7.06%
CCOc1ccc(CNC(=O)c2[nH]c3ccccc3c2Sc2ccc(C)cc2)cc1 | inactive: 10.4%
Cc1ccc(NC(=O)CCS(=O)(=O)c2ccc(Br)cc2)c(C)c1 | inactive: 0.22%
CC(C)c1ccccc1NC(=O)CN(c1ccccc1)S(=O)(=O)N(C)C | inactive: -4.68%
Cc1ccc2c(c1)CC(C)N2S(=O)(=O)c1nnc(NC(=O)c2ccccc2F)s1 (centres undefined) | inactive: 1.42%
CCOc1ccc(-c2nn(-c3ccccc3)cc2C2NC(=O)NC(C)=C2C(=O)OC(C)C)cc1C (centres undefined) | inactive: -5.03%
Cc1ccc(-n2nc(CO)c(C(=O)NCCCCc3ccccc3)n2)cc1 | inactive: 2.24%
Cc1cc(C)cc(NC(=O)CCS(=O)(=O)c2ccc3nc(C)sc3c2)c1 | inactive: 0.2%
O=C1C(c2ccc(F)cc2)N(Cc2ccccc2Cl)C(=O)CN1C1CCCCC1 (centres undefined) | inactive: -13.5%
CCOC(=O)c1cc(-c2ccccc2)n(CCC(=O)Nc2ccc(C)cc2Cl)c1C | inactive: 2.25%
COc1ccc(OC)c(S(=O)(=O)N2Cc3ccccc3CC2C(=O)Nc2ccc(Cl)cc2)c1 (centres undefined) | inactive: 5.87%
Cc1cc(Cl)ccc1Nc1ncnc2onc(C)c12 | inactive: -1.16%
Cc1ccc(Cl)cc1N1CCN(C(=O)c2cc(S(=O)(=O)N3CCCCCC3)cn2C)CC1 | inactive: -1.53%
Fc1ccccc1OCc1nc(-c2ccc(-n3cccc3)cc2)no1 | inactive: 13.2%
CN(Cc1ccc(F)cc1)S(=O)(=O)c1nnc(NC(=O)c2ccc(F)cc2)s1 | inactive: -20.7%
O=C(Nc1ccccc1Cl)C1CCN(c2nc3ccccc3[nH]2)CC1 | inactive: 8.7%
COc1cccc(NC(=O)CSCn2nnc3c(=O)[nH]c(Cc4ccc(F)cc4)nc32)c1 | inactive: -21.6%
O=C(CN(CCc1ccccc1)S(=O)(=O)c1ccccc1)NCc1ccc(Cl)cc1 | inactive: -24.3%
COc1ccc(NC(=O)C2CCCN(S(=O)(=O)c3ccc4c(c3)CCCN4C(C)=O)C2)cc1 (centres undefined) | inactive: -27%
COC(=O)c1ccc2c(c1)N(CC(=O)Nc1cccc(C(F)(F)F)c1)C(=O)c1ccccc1S2 | inactive: 18.1%
O=C(CSc1nc2c([nH]c3ccccc32)c(=O)n1-c1ccccc1F)Nc1ccccc1C(F)(F)F | inactive: -12.5%
Cc1ccc(S(=O)(=O)c2nc(-c3cccc(C)c3)oc2N2CCCCC2)cc1 | inactive: 0.871%

Compound | activity change, negative = cytotoxicity
O=S(=O)(Nc1cccc(-c2ccc(N3CCCC3)nn2)c1)c1ccc(F)cc1F | inactive: 24.2%
Cc1ccccc1-n1c(=O)c2c3c(sc2n2cnnc12)CCCC3 | inactive: 8.21%
COc1ccc(CNC(=O)C2CCN(c3nnc(-n4cccc4CNc4ccc(C)cc4)s3)CC2)c(OC)c1 | inactive: -18.1%
COc1ccc(Cn2ccnc2SCC(=O)Nc2cc(C(F)(F)F)ccc2Cl)cc1 | inactive: 2.73%
COc1ccc(-c2cn3nc(N4CCCC(C(=O)NCc5ccccc5C)C4)sc3n2)cc1 (centres undefined) | inactive: -21.5%
CCOC(=O)c1ccccc1NC(=O)c1sc2ccccc2c1Cl | inactive: 1.16%
CCN(CC)C(=O)Cn1c(=O)cc(C)c2c(C)nn(C)c21 | inactive: 14.8%
COc1ccc(NC(=O)CSc2c3c(nc4ccccc24)CCC3)c(OC)c1 | inactive: 2.86%
COc1ccc(N2CCN(C(=O)CN(C)S(=O)(=O)c3cccs3)CC2)cc1 | inactive: 16.5%
CCn1c(=O)n(-c2ccc(F)c(Cl)c2)c(=O)c2c3c(sc21)CN(C(C)=O)CC3 | inactive: 2.82%
CCOC(=O)c1nc(N2CCN(c3ccc(F)cc3)CC2)c2c(C)noc2n1 | inactive: 1.64%
COc1ccc(-c2csc3nc(-c4ccc(F)cc4)oc(=O)c23)cc1 | inactive: 8.7%
COc1ccc(NC(=O)CCCc2nnc3n(CCC(C)C)c(=O)c4sccc4n23)c(OC)c1 | inactive: 24.9%
COCCNC(=O)c1ccc(-n2c(-c3ccccc3)cc3c2CCCCC3)cc1 | inactive: 1.19%
COc1cccc(N2C(=O)CSC23C(=O)N(Cc2ccccc2)c2ccccc23)c1 (centres undefined) | inactive: 10.1%
Cc1ccc(C)c(CSc2cn(CC(=O)N3CCCCCC3)c3ccccc23)c1 | inactive: 18.9%
Cc1ccc(S(=O)(=O)c2nc(-c3ccccc3Cl)oc2N2CCCCCC2)cc1 | inactive: -24.6%
CCc1ccc(NC(=O)C(=O)NCC(c2ccc3c(c2)OCO3)N2CCOCC2)cc1 (centres undefined) | inactive: -6.79%
COc1ccc(C2=NS(=O)(=O)N(C)C(C(=O)NCc3ccccc3)=C2)cc1OC | inactive: -0.396%
CN1C(=O)c2ccccc2Sc2ccc(NC(=O)COc3ccccc3)cc21 | inactive: -27.4%
Cc1ccc(Cl)c(NC(=O)Nc2csc3c2CCCC3)c1 | inactive: 1.97%
CCc1ccccc1NC(=O)Cn1c(=O)n(CC2CCC(C(=O)NCCc3ccccc3)CC2)c(=O)c2ccccc21 (centres undefined) | inactive: 29%
CCn1cc(C(=O)NCCCN(CC(C)C)CC(C)C)c(=O)c2cc(S(=O)(=O)N(C)C3CCCCC3)ccc21 | inactive: 0.318%
COc1ccc(NC(=O)CCc2nnc3n(C)c(=O)c4sccc4n23)cc1Cl | inactive: -1.82%

Compound | activity change, negative = cytotoxicity
COc1cccc(N2C(=O)N(Cc3ccc(C#N)cc3)c3ccccc3S2(=O)=O)c1 | inactive: 27.7%
CCC(=O)N1CCc2cc(Br)cc(S(=O)(=O)CCC(=O)Nc3ccc(C)c(C)c3)c21 | inactive: 4.14%
COc1ccc(-c2noc(-c3ccc(NCc4cccnc4)c([N+](=O)[O-])c3)n2)cc1 | inactive: 3.06%
CCOc1ccc(NC(=O)c2cc(S(=O)(=O)N3CCCCC3)c[nH]2)cc1 | inactive: -4.51%
COc1ccc(CCNC(=O)Cn2c(=O)n(-c3cc(OC)c(OC)c(OC)c3)c(=O)c3ccccc32)cc1OC | inactive: 1.31%
COc1cccc(CNc2nc3c(-c4ccccc4)nnn3c3ccccc23)c1 | inactive: 6.32%
Cc1ccc2oc(=O)c3cnn(CC(=O)N4CCN(c5cc(Cl)ccc5C)CC4)c3c2c1 | inactive: 10.7%
COc1cccc(NS(=O)(=O)c2ccc3[nH]cc(C(=O)NCCc4ccccc4)c(=O)c3c2)c1 | inactive: 16%
CCOc1ccc(CCNCc2c(C(=O)O)n(Cc3ccc(C)cc3)c3cc(OC)ccc23)cc1 | inactive: 0.0535%
CN(Cc1ccccc1)C(=O)CSc1nc2ccsc2c(=O)n1-c1ccc(F)cc1 | inactive: -27%
CCOc1cc(C2c3c(oc4ccc(F)cc4c3=O)C(=O)N2Cc2ccco2)ccc1O (centres undefined) | inactive: -3.48%
Cc1ccc(-c2cc(C(=O)NCc3cnn(C)c3)c3cc(Br)ccc3n2)cc1 | inactive: 26.9%
Cc1ccc(-n2c(SCC(=O)Nc3ccc4c(c3)OCO4)nc3c([nH]c4ccccc43)c2=O)cc1 | inactive: -0.694%
CCCCNc1nc(Oc2ccc(OCC(N)=O)nn2)nc(N2CCOCC2)n1 | inactive: -0.612%
COc1ccc(CCNc2ncnc3c2c(-c2ccccc2)cn3-c2ccc(F)cc2)cc1OC | inactive: -27.5%
CCC(=O)C1=C(c2cccc([N+](=O)[O-])c2)N(C(=O)CC)n2c(nnc2-c2ccccc2)S1 | inactive: 6.39%
CCc1ccccc1N(C)C(=O)c1cnc(N2CCOCC2)c2ccccc12 | inactive: 2.42%
Cc1ccc(Cc2nc3ccccc3nc2SCC(=O)NCc2ccc(F)cc2)cc1 | inactive: 9.93%
Cc1cccc(C(=O)N2CCc3cc(CNC(=O)Cc4ccc(F)cc4)ccc32)c1 | inactive: 2.73%
CN(C)c1ccc(CNC(=O)C2CCN(S(=O)(=O)c3ccc4c(ccn4C)c3)CC2)cc1 | inactive: 3.92%
CCN(C(=O)Cn1cc(S(=O)(=O)Cc2ccccc2Cl)c2ccccc21)c1ccccc1 | inactive: -16.5%
Cc1ccc(C)c(N2CCN(C(=O)Cn3c(-c4cccs4)cc4ccccc43)CC2)c1 | inactive: 2.96%
CCOC(=O)c1ccc(NC(=O)C(CC)Sc2nc3ncccc3o2)cc1 (centres undefined) | inactive: -5.92%
Cc1ccc(N2CCN(C(=O)c3c4c(nc5ccccc35)C(=O)N(C3CCCCC3)C4)CC2)c(C)c1 | inactive: 22.2%

Compound | activity change, negative = cytotoxicity
CCOC(=O)c1c(S(=O)(=O)NCC(=O)Nc2ccc(C)c(Cl)c2)c(C)n(C)c1C | inactive: -10.7%
CCC(C(=O)NCc1ccccc1OC)n1nc(C)n2c(cc3sccc32)c1=O (centres undefined) | inactive: 6.73%
CC(C)(C)n1cnc2cc(NCc3ccccc3Cl)ccc21 | inactive: -7.76%
COc1ccc(NC(=O)C2CCCN2S(=O)(=O)c2cccc3cccnc23)cc1OC (centres undefined) | inactive: 8.69%
CC(C)Oc1ccc(CNC(=O)c2ccc(NC(=O)N3CCSc4ncccc43)cc2)cc1 | inactive: 5.77%
CSc1ncc(C(=O)NCc2ccccc2)c(-c2ccccc2)n1 | inactive: -0.83%
Cc1ccccc1Cn1nnc2c(=O)[nH]c(C3CCN(C(=O)c4ccccc4)CC3)nc21 | inactive: -14.5%
CCOC(=O)c1cnc2ccc(C(=O)OC)cc2c1Nc1ccccc1CC | inactive: -9.25%
CCOc1ccc(C2c3[nH]c4ccccc4c3CCN2C(=O)Cc2cccc(OCC)c2OCC)cc1 (centres undefined) | inactive: -22.8%
COc1ccc(-c2nc3sc(CCNC(=O)c4cccc(C(F)(F)F)c4)c(C)n3n2)cc1 | inactive: 14.3%
Cc1ccc(Cn2ccn(CC(=O)Nc3ccccc3C(F)(F)F)c(=O)c2=O)cc1 | inactive: -0.928%
CCOc1ccc(CCNC(=O)CS(=O)Cc2nc(-c3ccc(C)cc3)oc2C)cc1OCC (centres undefined) | inactive: 0.542%
CCOC(=O)c1cnc2cc(C(F)(F)F)ccc2c1N1CCN(c2ccc(F)cc2)CC1 | inactive: -6.72%
COc1ccccc1CNC(=O)C1CCCN(c2nn3cc(-c4ccc(F)cc4)nc3s2)C1 (centres undefined) | inactive: -1.43%
CCOCCc1nn2c(=O)cc(COC(=O)COc3ccccc3Cl)nc2s1 | inactive: -1.41%
Cc1ccc(NC(=O)CN2CCCN(Cc3ccccc3Cl)S2(=O)=O)c(C)c1 | inactive: -5.47%
COc1ccccc1CNC(=O)CCc1c(C)nc2cc(-c3ccccc3OC)nn2c1C | inactive: 9.57%
CC(=O)c1ccc(NC(=O)c2ccc3c(c2)N(Cc2cccc(Cl)c2)C(=O)c2ccccc2S3(=O)=O)cc1 | inactive: 9.98%
CCOC(=O)c1c(C)[nH]c(C)c1S(=O)(=O)N1CCC(C(=O)Nc2ccc(F)cc2F)CC1 | inactive: -19.1%
COc1ccc(S(=O)(=O)NCCc2nnc3ccc(SCC(=O)Nc4ccc(C(F)(F)F)cc4)nn23)cc1 | inactive: -10.2%
CC(=O)c1ccc(NS(=O)(=O)c2cc3[nH]c(=O)c(=O)[nH]c3cc2C)cc1 | inactive: 17.1%
Cc1cccc(-n2c3c(cc(-c4nc(-c5ccc(Cl)cc5)cs4)c2=O)C(=O)CC(C)(C)C3)c1 | inactive: 6.3%
